Out of some 310,000 compounds screened, about 11,000 (3.5%) were called active. The shares of active, inactive and inconclusive entries below differ from those in the screen. Calls come from the whole dose curve; as a rule, active = well fitted inhibition curve with a large enough effect; inconclusive = small, poorly fitted or top-dose-only effect, or effect the other way; inactive = flat fitted curve, though single readings scatter. Potencies of inconclusive entries are left out as doubtful fits.
Test: VP16 counterscreen qHTS for inhibitors of ROR gamma transcriptional activity;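 note: Gal4-VP16 expression switched on by copper sulfate through the metallothionein promoter; nearly all actives have a fitted effect of over 50% in size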
Conditions: Drosophila S2 Gal4-VP16 UAS-luciferase, luminescence, 20 h; activity, negative = inhibition: at 53.6 µM (top of the series)
% is set by controls: 0 for no effect and ±100 for the full control effect; potency is the fitted concentration of half-maximal effect; tags give direction and shape of the fitted curve.

SMILES	Potency	activity, negative = inhibition
COc1ccc(C(=O)Nc2nnc(-c3ccc(F)cc3)s2)c(OC)c1	inconclusive [inhibitor, full curve, poor fit]	
CCOC(=O)CSc1nc(N)c(C#N)c(-c2cccs2)c1C#N		inactive: -9.68%
Cc1cccc(NC(=S)NCc2ccco2)c1C	active: 11.2 µM	
O=C(CCC(=O)N1CCN(c2ccc(O)cc2)CC1)c1cccs1	inconclusive [activator, partial curve, poor fit]	
Cc1cc(CSc2ccccc2)ccc1NC(=O)c1ccc(Br)cc1	inconclusive [inhibitor, partial curve]	
COc1cc(NC(=O)C2CC(c3ccccc3O)=NO2)c(OC)cc1Cl (centres undefined)	inconclusive [inhibitor, partial curve]	
O=C(NN1C(=O)c2ccccc2NC1c1ccc([N+](=O)[O-])o1)c1ccc([N+](=O)[O-])cc1 (centres undefined)		inactive: -12.2%
Cc1ccc(S(=O)(=O)c2cc(C#N)c(=O)[nH]c2N)cc1		inactive: -4.45%
O=C(N/N=C/c1cc(Br)cc(Br)c1O)c1cccc(S(=O)(=O)N2CCOCC2)c1		inactive: -0.931%
CC(C)n1cc(/C=N/Nc2ccc(Cl)c(C(=O)O)c2)c2ccccc21		inactive: -9.66%
Cc1[nH]n(-c2ccccc2)c(=O)c1/C=N/n1c(C)nc2ccccc2c1=O	inconclusive [inhibitor, single point]	
Cc1cc(C(F)(F)F)nn2cnnc12		inactive: -11.9%
CCCC(=O)NC(=S)Nc1ccccc1C(F)(F)F	inconclusive [inhibitor, single point]	
c1ccc2cc(OCc3nc4ccccc4[nH]3)ccc2c1	inconclusive [inhibitor, single point]	
COC(=O)c1cccc(NC(=O)CSc2nc(O)c(-c3ccccc3)c(=O)[nH]2)c1		inactive: -7.45%
Cc1ccc(CNC(=O)C(=O)c2cn(CC(=O)N3CCOCC3)c3ccccc23)cc1	inconclusive [activator, single point]	
Cn1ncc(Cl)c1C(=O)N1CCN(c2ccc(Cl)c(Cl)c2)CC1	inconclusive [inhibitor, single point]	
CCOc1ccc(-n2nnnc2-c2nc3ccccc3s2)cc1	inconclusive [inhibitor, single point]	
CCOC(=O)NNc1cc(C(F)(F)F)ccn1	inconclusive [inhibitor, partial curve]	
Cc1ccc(O)c(NC(=O)c2noc3c2CCCCC3)c1	inconclusive [inhibitor, single point]	
S=C(NC1CCCCC1)NN(c1ccccc1)c1ccccc1	active: 5.62 µM	
Cc1ccc(C(=O)/C=C/Nc2ccccc2C(N)=O)cc1	active: 2.82 µM	
O=C(O)c1ccc(-n2cc(-c3cc4ccccc4oc3=O)[nH]c2=S)cc1		inactive: -5.42%
CCCCCC(=O)NC(=S)Nc1cccc(C(C)=O)c1	inconclusive [inhibitor, partial curve]	
CC(=O)Nc1ccc(NC(=O)c2ccc(COc3ccccc3Br)o2)cc1		inactive: -0.807%

SMILES	Potency	activity, negative = inhibition
CC(=O)c1sc(N/N=C2\CC3CC2C(C)C3(C)C)nc1C (centres undefined)	inconclusive [inhibitor, single point]	
CCOc1ccc(Cl)cc1/C=N/NC(=O)c1ccccc1		inactive: -15.1%
O=C(O)c1cccc(Nc2nc(Nc3ccccc3)nc(N3CCCC3)n2)c1	inconclusive [inhibitor, partial curve]	
COc1ccc(N2CCN(C(=S)Nc3ccccc3)CC2)cc1	inconclusive [inhibitor, single point]	
CN(C)c1ccc(C(=O)OCC(=O)Nc2ccc(N3CCOCC3)cc2)cc1		inactive: 17.1%
O=C(C[n+]1cc(-c2ccccc2)n2c1CCC2)N1c2ccccc2Sc2ccccc21		inactive: -14.8%
COc1ccc(C(=O)NC2CCN(C(=S)Nc3ccc(C)c(C)c3)CC2)cc1	inconclusive [activator, single point]	
O=C(/C=C/c1ccco1)NC(=S)Nc1cccc(-c2nc3ccccc3o2)c1	active: 12.6 µM	
O=C(NCc1ccc(F)cc1)c1cccc(S(=O)(=O)N2CCCC2)c1		inactive: -6.39%
COc1ccc(N=Cc2nc(-c3ccccc3)oc2OC(=O)c2ccccc2)cc1	inconclusive [inhibitor, single point]	
Cc1cc(C)c(S(=O)(=O)OC[C@H]2C=CC[C@@H](CCC[C@H]3O[C@H](C(=O)OC(C)C)CC[C@@H]3C)O2)c(C)c1		inactive: 1.4%
Nc1ccncc1N		inactive: 5.65%
O=C(Nc1ccc(Cl)cc1)OCc1ccccn1	inconclusive [activator, single point]	
Oc1ccc([C@@H]2CNCCc3c2cc(O)c(O)c3Cl)cc1		inactive: -8.79%
Cc1ccc2nc(SCC(=O)N3CCOCC3)[nH]c2c1	inconclusive [inhibitor, full curve]	
C=CCNC(=O)/C(C#N)=C/c1c(C)nn(-c2ccc(Cl)cc2)c1Cl	inconclusive [inhibitor, single point]	
O=C(NC(=O)N1CCN(c2ccc([N+](=O)[O-])cn2)CC1)c1c(Cl)cccc1Cl		inactive: -6.56%
Cn1c(=O)n(Cc2ccc(F)cc2)c(=O)c2c1nc1n2CCCN1Cc1ccccc1	inconclusive [inhibitor, single point]	
O=C(NCc1ccccc1)c1ccc(CS(=O)(=O)Cc2ccc(F)cc2)o1		inactive: 12.2%
CCNC(=O)C/C(C)=N/NC(=O)C1CCCCC1	inconclusive [inhibitor, single point]	
CCOc1ccc(S(=O)(=O)N(CC(=O)NC2CCCCC2C)Cc2ccco2)cc1 (centres undefined)	inconclusive [inhibitor, single point]	
C/C(=N\NC(=S)NCCc1ccccc1)c1cccs1	active: 1.41 µM	
COC(=O)[C@H]1[C@H]2C[C@@H]3c4[nH]c5ccccc5c4CCN3C[C@H]2C[C@@H](OC(=O)c2cc(OC)c(OC)c(OC)c2)[C@@H]1OC	inconclusive [inhibitor, full curve]	
O=C(c1ccco1)N1CCN(c2c(-c3ccccc3)c3cc(Cl)ccc3[nH]c2=O)CC1	inconclusive [inhibitor, single point]	
COc1ccc(NC(=O)Cc2ccccc2)cc1		inactive: -15.7%

SMILES	Potency	activity, negative = inhibition
CCOC(=O)C1(CCCc2ccccc2)CCN(C(=O)CN2CCOC2=O)CC1	inconclusive [activator, partial curve, poor fit]	
CCOc1ccc(N=C(NN)c2ccc3ccccc3n2)cc1	inconclusive [inhibitor, single point]	
COc1ccc(C(=O)Nc2ccc(NC(=O)c3cccc(OC)c3)cn2)cc1	inconclusive [inhibitor, single point]	
O=[N+]([O-])c1cc(C(F)(F)F)cc([N+](=O)[O-])c1Sc1n[nH]c(C(F)(F)F)n1	inconclusive [inhibitor, single point]	
COc1ccccc1CNC(=O)Nc1cccs1	inconclusive [inhibitor, single point]	
O=C1/C(=C/c2cccnc2)SC(=S)N1N1CCOCC1		inactive: -13.5%
O=C(CCCN1CCOCC1)c1ccc2c(c1)OCCO2	inconclusive [inhibitor, partial curve, poor fit]	
COC(=O)c1c(C)c2c(c(C)c1O)OC(=O)c1c(C)c(Cl)c(O)c(Cl)c1O2	inconclusive [inhibitor, single point]	
COCCCn1c(Cc2csc(Nc3cccc(Cl)c3)n2)nnc1SCC(=O)OC1CCCCC1	inconclusive [inhibitor, single point]	
Cc1ccc(NC(=O)c2ccccc2NS(=O)(=O)c2ccc(F)cc2)cc1S(=O)(=O)N1CCCCC1	active: 10 µM	
Cc1ccc(Nc2nc(-c3ccc(O)c(O)c3)cs2)nc1	active: 6.31 µM	
COc1ccc(S(=O)(=O)N[C@H](C(=O)N2CC[C@@]3(O)CCCC[C@H]3C2)c2ccccc2)cc1		inactive: -2.95%
COc1ccc(OC)c(-c2csc(NC(=O)Cc3cccs3)n2)c1		inactive: -9%
O=C(COc1ccccc1)N1CCN(S(=O)(=O)c2cccs2)CC1		inactive: 3.71%
O=C(CNC(=O)c1ccccc1)OCC(=O)N1N=C(c2ccc(Cl)cc2)CC1c1ccco1 (centres undefined)		inactive: -2.61%
O=C(/C=C/c1ccco1)NC(=S)Nc1ccc(N2CCOCC2)c(Cl)c1		inactive: -18.8%
COc1cc(NC(=O)c2ccc3c(SCC(=O)O)c4c(nc3c2)CCCC4)cc(OC)c1OC		inactive: 1.01% [at 10 µM]
CC(=O)Oc1ccc(/C=C/c2nc3ccccc3c(=O)o2)cc1	inconclusive [inhibitor, partial curve, poor fit]	
CCCC(=O)NC(=S)Nc1cccc(NC(=O)c2ccccc2Cl)c1	inconclusive [inhibitor, single point]	
COc1ccccc1CNc1ncnc2ccc(-c3ccccc3C#N)cc12	inconclusive [inhibitor, single point]	
Cc1cc2c(c(=O)n1Cc1ccccc1)C1O[C@](c3ccsc3)(Cc3ccccc31)O2		inactive: -1.44% [at 10 µM]
CC(C)(C)c1ccc(CN2C(=O)c3ccccc3S2(=O)=O)cc1	inconclusive [inhibitor, single point]	
O=C(NCc1ccccn1)c1cc(-c2ccc(-c3ccccc3)cc2)nc2ccccc12		inactive: -20.5%
COc1cccc(/C(O)=C/c2nc3ccc(C(=O)NCCc4cccc(C)c4)cc3[nH]c2=O)c1	inconclusive [inhibitor, single point]	

— PubChem BioAssay AID2546 (National Center for Advancing Translational Sciences (NCATS), 2010)
